# The supplement of paper PMC11417369
# The list shows a part of the results.
# Test system: PfAP2-HC AP2 domain (GST-tagged)
# Experiment: gcPBM binding intensity (ln(normalized median fluorescence intensity)); higher = stronger DNA binding
# Method in brief: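 Binding of GST-tagged P. falciparum DNA-binding domains, expressed in E. coli and used at about 25 μg on average, was carried out for 1 h in 1× PBS containing 1% milk, 0.2 mg/ml BSA, 0.5% salmon testes DNA and 0.03% Triton X-100. The target was an Agilent 4 × 180k array of primer-extended double-stranded 36-bp intergenic genomic probes plus negative controls, read with Alexa488 anti-GST antibody at 488 nm. Binding intensity is the highest Masliner-normalised natural-log median intensity across replicate spots of either probe orientation.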
row,Sequence,gcPBM binding intensity (ln)
1,TAGATACCTATAGAAACATGCAATTGAATATATTTC [TGCATGCA_site402],9.61
2,TTCTTACACGTTTGCACACTAAAATATATATATATA [CACACA_site434],9.91
3,GTTACATACATATACACACACATATATATATATATA [CACACA_site901],10.2
4,TAAATAATTCTTTTAGTACACACGAATAAGCAGATA [CACACA_site305],9.73
5,AAATATTACCATGTGAAAATTTTACTGCAACATGAA [TGCATGCA_negctrl_site609],9.68
6,TAAAAATTTACATGTTGTACATATAATTATATAATC [XGTACX_site4577],9.53
7,AGGCTGCCATATTATACACACATTTTTAAAAAAATT [CACACA_site3843],9.59
8,AAAGGATGTAATATAAACATATATATGTATATATAT [TGCATGCA_negctrl_site347],9.79
9,ATAAAATGAAATATATATGTGTATGCTTAACTTGTT [CACACA_negctrl_site431],9.82
10,TAATTTTTTTTAATAACACACATATATATATATATA [CACACA_site813],9.66
11,ATTGTTTTATATAGAACACACATAAAAATATATATG [CACACA_site1193],9.76
12,TAATATTCCTTTTTAACACACATATGAACAAATAAA [CACACA_site153],9.42
13,ATATTAAACAGACACACACACATATATTTATTTATA [CACACA_site7564],10.4
14,TATAGCATATCTCACACACACATAATGAATATTATA [CACACA_site5877],10.2
15,AAAATGAACTCACGAGCACACACACCCATATATATA [CACACA_site8247],10.3
16,TGTATTATATAAAATTGTACATGCGAATTGTATAAC [XGTACX_site902],9.61
17,TATAGCTATGTATTCACACATAATATAAACTTTAAT [CACACA_site5889],9.63
18,TAAAACAAAACAAAAATAGGATTATATTCCTTTTTT [CACACA_negctrl_site1003],9.45
19,ATAATTTCAATATTTAATATCATATATATATATTTT [GTGCAC_negctrl_site713],9.63
20,ATATATATATATATATGTACATATGTGTATATAACT [XGTACX_site495],9.98
21,AAATAAAAAAATACCCAACACCATGCCAAATGTGAA [CACACA_negctrl_site411],10.2
22,ACAAAATGTAAATAAACACACATATTTATATTTATA [CACACA_site6719],9.94

row,Sequence,gcPBM binding intensity (ln)
1,TTGGTGGATAAATTTACACACAATAATTTTCGTTCA [CACACA_site467],9.68
2,AATAAAATATTATGTGCATGCTGTTTTATTTATTAA [TGCATGCA_site102],9.71
3,AATTCACCAAAAAAAGTGCATATTCAATATATATTA,9.5
4,TAGTTAGGCCCTACATGTACATAATATATATTACTT [XGTACX_site1137],9.93
5,ATCAACATTACATTTAGTACACATATATTTCTATGT [XGTACX_site4436],9.94
6,TATATAAGTATAAAATGTACATAAAATTTTATGTTA [XGTACX_site2613],9.7
7,CTAATTAATATTTGTACACACATATTTAACCTACTA [CACACA_site3191],9.91
8,TAAAATTCGAAAAATTGTACTATTTATATATCTGTA [XGTACX_site6478],9.47
9,AAGACACAAAAACACACACACATACATACATACATA [CACACA_site454],10.3
10,TATGTTGATGATGATAGTACATATGAGTTCAAAAAA [XGTACX_site7712],9.64
11,TATATTTGGAAAACATGTACATATAACAATATGTAA [XGTACX_site324],9.6
12,AATAAAAAAGGAAACAAATTAATATATATATATATA [CACACA_negctrl_site467],9.52
13,AAAAAAAGAAATAATAAAAAATATATATATATATAT [GTGCAC_negctrl_site702],9.4
14,CGTACATAATTTTAATCACACACAAACAAACACATA [CACACA_site7947],10.2
15,TGTTTTGTTGTGTATTGTACTAATATAAATATATAA [XGTACX_site1852],9.68
16,TAAAAAAACGCACTCGTACACACATATTTTCTTTCT [CACACA_site3090],9.85
17,TTTTATGATTGACACACACACAAAAAAAAAAAAAAA [CACACA_site7860],9.95
18,TTTGAAATATATTTAGTGCATATATATTGATTATAA [GTGCAC_site9604],9.36
19,ATACATATAGGATGCACACATAATTCAAATACAATA [CACACA_site651],10.1
20,ATGAATATAATGAAGTGTACATAAAAATAATAAATA [XGTACX_site2481],9.9
21,CAATTTTGCCCTTCCTGTACATATATTGAAAAATAT [XGTACX_site6388],9.36
22,ATCTAGTACATACATACACACAACAATGTTATGAGA [CACACA_site3989],9.81

row,Sequence,gcPBM binding intensity (ln)
1,AATTATAGCTGTATCTGTACGCATTTATTTATAGAC [XGTACX_site5959],9.65
2,GAAAGGGCAGGAACTATTAATACACTGATCGATAAG [CACACA_negctrl_site1458],9.53
3,TTAAATAATATTAGCCGTACAATTTAAAGATAATAA [XGTACX_site8503],9.41
4,TTTAATACTTTATATGCATGCAGAGAAAAATGCTTG [TGCATGCA_site286],9.35
5,AAAAAAAAGTATGATTCTAAATTTATGTATATATAA [GTGCAC_negctrl_site669],9.48
6,TAAAAATATAGGTATACACACATATAAATATAAATA [CACACA_site7785],9.94
7,CTTATACATAAATTTTGTACACACAAAAAAAAAAAA [XGTACX_site2665],9.7
8,GATTTTAAAATAATTACACACTTGATTATGTCCAAA [CACACA_site3491],9.67
9,ATAAATATAAATATATGTACATATATATATATATAT [XGTACX_site7433],9.8
10,TAAATATTTATAAACACACAAATATTTATATTTATA [CACACA_site6166],9.58
11,AAATAGAGAAATACAAGTACATATCAAACCAATCTA [XGTACX_site2756],9.73
12,TTTATTTATTAATACACACACACACGCCCACAAAAT [CACACA_site6253],10.5
13,AGGGACATATATATCACACACAAAAATTAGTCCCTT [CACACA_site2778],10.1
14,AAATAAATTAAAATAAATTAAATTAAATTAGCATTA [GTGCAC_negctrl_site531],9.52
15,TGTATGTTATGTATATGTACATATCTTTGTATTTAT [XGTACX_site6920],10.2
16,TTTTAAATAATTCGTAATTATAATTATGGAAAAAAG [CACACA_negctrl_site152],9.52
17,TATTTATAAGTTTACGCATGCATATAATTATTAATA [TGCATGCA_site311],9.47
18,TTTTTTTTTTTTTTTGTGCACAATTATTTCAATTTT [GTGCAC_site9884],9.66
19,TAATATTTATAATAGTGTACACAATTATAAACTGAA [XGTACX_site8426],9.58
20,TTTATTTTTTACCAAGTGCAATATATTATAATAATA,9.11
21,ACCTTATTTATTATTGCATGTGACCATCAGATGGTA [TGCATGCA_site288],9.62
22,AAAGAAAAAAAATAATGTACTTATGTATTTCAGAAA [XGTACX_site3570],9.67

row,Sequence,gcPBM binding intensity (ln)
1,TTCATACATAGAAAATGTACATATATATATATATAT [XGTACX_site1895],9.71
2,ATATATATGCATAATACACACATCATATAATTAACC [CACACA_site1643],10.2
3,TACAAAATATTTTACACACACATATAAATACAGATA [CACACA_site5447],10.6
4,AAGATATGTACTAATACACACACATATATATATATA [CACACA_site8249],9.9
5,AAAAAAAAAAACAATACATGCATAATATTAATAAAA [TGCATGCA_site913],9.65
6,TATCCATGCATTTACACACACACAAAAAAAAATTCT [CACACA_site4100],10.6
7,ATTTTTTTTTTTAATACACACAATTTTGATGAAGCA [CACACA_site3157],9.56
8,TTTCATAAGAGAAAGACACACAAATATATATTTATT [CACACA_site827],9.53
9,TATAATATTTGGTGCACACAAATTAACAACTGTTTA [CACACA_site3742],9.75
10,ACATTACCATATAAAACACACAAACATACATACATA [CACACA_site7709],10.1
11,AATGCTATCATTAATGCACACATTTAAAATTAATAT [CACACA_site3548],9.67
12,TTTAAAACCTTACATACACACAAATATATATATATA [CACACA_site677],10
13,ATAATAAAAAATACAAGTACACATATTATATATATA [XGTACX_site5355],9.93
14,CAAACAATTAAACAAACACACATATACAAGTATTTA [CACACA_site5177],9.93
15,TTTAAGTTTTTACTTTGTACGTATTATAATAAAATC [XGTACX_site5683],9.58
16,TATATTTACTTATGAAGTACATATATATATATATAT [XGTACX_site5069],9.67
17,TGTTCTTTTTATACTACACACTGATAAAAAAACAAA [CACACA_site3001],9.46
18,GCTTGAATAATCAATAGTACACACATATAAATATAT [XGTACX_site5964],9.8
19,TTTATTTTCATATGAACACACATATTTATATTATAA [CACACA_site7165],10.2
20,ATACATACATATATATGTACTTATATTTTACACATT [XGTACX_site1688],10.3
21,TACAATCTAAGGAGCACACAAAAATGGATAAATATA [CACACA_site933],9.78
22,TAATAAAAGAAAAAAAGTACAGACATATTGAATTTT [XGTACX_site5044],9.78
